# The supplement of paper PMC8728848
# Some of the results follow.
# B1: Cohesin-hDECTIN-1 (Homo sapiens) (protein)
# chain: LDITSHHHHHHDDLDAVRIKVDTVNAKPGDTVRIPVRFSGIPSKGIANCDFVYSYDPNVLEIIEIEPGDIIVDPNPDKSFDTAVYPDRKIIVFLFAEDSGTGAYAITKDGVFATIVAKVKEGAPNGLSVIKFVEVGGFANNDLVEQKTQFFDGGVNVGDTTEPATPTTPVTTPTTTDDLDAASSSPCPPNWIIYEKSCYLFSMSLNSWDGSKRQCWQLGSNLLKIDSSNELGFIVKQVSSQPDNSFWIGLSRPQTEVPWLWEDGSTFSSNLFQIRTTATQENPSPNCVWIHVSVIYDQLCSVPSYSICEKKFM
# What was measured:
# Assay in all cases: glycan array binding signal (z-score within array); higher = stronger binding
# Conditions in all cases: glycan notation: IUPAC condensed, linker removed
# [1] = molecular target: Fuc(a1-2)Gal(b1-4)[Fuc(a1-3)]GlcNAc(b1-2)Man(a1-3)[Fuc(a1-2)Gal(b1-4)[Fuc(a1-3)]GlcNAc(b1-2)Man(a1-6)]Man(b1-4)GlcNAc(b1-4)[Fuc(a1-6)]GlcNAc
# Procedure, shortened: (§1)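 Negative Z-scores can be read as non-binding. The Z-score is calculated within each array and then averaged across arrays of one protein sequence at different concentrations or buffers and across linkers. Arrays, 3228 in all, were curated from the Consortium for Functional Glycomics database and kept only where the protein sequence was available.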
# [2] = molecular target: Fuc(a1-2)Gal(b1-4)[Fuc(a1-3)]GlcNAc(b1-2)[Fuc(a1-2)Gal(b1-4)[Fuc(a1-3)]GlcNAc(b1-4)]Man(a1-3)[Fuc(a1-2)Gal(b1-4)[Fuc(a1-3)]GlcNAc(b1-2)Man(a1-6)]Man(b1-4)GlcNAc(b1-4)GlcNAc
# Procedure, shortened: as §1
# [3] = molecular target: Fuc(a1-2)Gal(b1-4)[Fuc(a1-3)]GlcNAc(b1-3)Gal(b1-4)[Fuc(a1-3)]GlcNAc
# Procedure, shortened: as §1
# [4] = molecular target: Fuc(a1-2)Gal(b1-4)[Fuc(a1-3)]GlcNAc(b1-3)Gal(b1-4)[Fuc(a1-3)]GlcNAc(b1-3)Gal(b1-4)[Fuc(a1-3)]GlcNAc
# Procedure, shortened: as §1
# [5] = molecular target: Fuc(a1-2)Gal(b1-4)[Fuc(a1-3)]GlcNAc(b1-3)GalNAc
# Procedure, shortened: as §1
# [6] = molecular target: Fuc(a1-2)Gal(b1-4)[Fuc(a1-3)]GlcNAc(b1-3)[Neu5Ac(a2-6)Gal(b1-4)GlcNAc(b1-6)]Gal(b1-4)Glc
# Procedure, shortened: as §1
# [7] = molecular target: Fuc(a1-2)Gal3S(b1-4)GlcNAc
# Procedure, shortened: as §1
# [8] = molecular target: Fuc(a1-2)Gal6S(b1-3)GlcNAc
# Procedure, shortened: as §1
# [9] = molecular target: Fuc(a1-2)Gal6S(b1-3)GlcNAc6S
# Procedure, shortened: as §1
# Fuc(a1-2)Gal6S(b1-4)Glc = molecular target: Fuc(a1-2)Gal6S(b1-4)Glc
# Procedure, shortened: as §1
# [10] = molecular target: Fuc(a1-2)Gal6S(b1-4)Glc6S
# Procedure, shortened: as §1
# Fuc(a1-2)[Gal(a1-3)]Gal = molecular target: Fuc(a1-2)[Gal(a1-3)]Gal
# Procedure, shortened: as §1
# [11] = molecular target: Fuc(a1-2)[Gal(a1-3)]Gal(b1-3)GalNAc
# Procedure, shortened: as §1
# [12] = molecular target: Fuc(a1-2)[Gal(a1-3)]Gal(b1-3)GalNAc(b1-3)Gal(a1-4)Gal(b1-4)Glc
# Procedure, shortened: as §1
# [13] = molecular target: Fuc(a1-2)[Gal(a1-3)]Gal(b1-3)GlcNAc
# Procedure, shortened: as §1
# [14] = molecular target: Fuc(a1-2)[Gal(a1-3)]Gal(b1-3)GlcNAc(b1-2)Man(a1-3)[Fuc(a1-2)[Gal(a1-3)]Gal(b1-3)GlcNAc(b1-2)Man(a1-6)]Man(b1-4)GlcNAc(b1-4)GlcNAc
# Procedure, shortened: as §1
# [15] = molecular target: Fuc(a1-2)[Gal(a1-3)]Gal(b1-3)GlcNAc(b1-2)Man(a1-3)[Fuc(a1-2)[Gal(a1-3)]Gal(b1-3)GlcNAc(b1-2)Man(a1-6)]Man(b1-4)GlcNAc(b1-4)[Fuc(a1-6)]GlcNAc
# Procedure, shortened: as §1
# [16] = molecular target: Fuc(a1-2)[Gal(a1-3)]Gal(b1-3)GlcNAc(b1-3)GalNAc
# Procedure, shortened: as §1
# [17] = molecular target: Fuc(a1-2)[Gal(a1-3)]Gal(b1-3)GlcNAc(b1-6)GalNAc
# Procedure, shortened: as §1
# [18] = molecular target: Fuc(a1-2)[Gal(a1-3)]Gal(b1-4)Glc
# Procedure, shortened: as §1
# [19] = molecular target: Fuc(a1-2)[Gal(a1-3)]Gal(b1-4)GlcNAc
# Procedure, shortened: as §1
# [20] = molecular target: Fuc(a1-2)[Gal(a1-3)]Gal(b1-4)GlcNAc(b1-2)Man
# Procedure, shortened: as §1
# [21] = molecular target: Fuc(a1-2)[Gal(a1-3)]Gal(b1-4)GlcNAc(b1-2)Man(a1-3)[Fuc(a1-2)[Gal(a1-3)]Gal(b1-4)GlcNAc(b1-2)Man(a1-6)]Man(b1-4)GlcNAc(b1-4)GlcNAc
# Procedure, shortened: as §1
# [22] = molecular target: Fuc(a1-2)[Gal(a1-3)]Gal(b1-4)GlcNAc(b1-2)Man(a1-3)[Fuc(a1-2)[Gal(a1-3)]Gal(b1-4)GlcNAc(b1-2)Man(a1-6)]Man(b1-4)GlcNAc(b1-4)[Fuc(a1-6)]GlcNAc
# Procedure, shortened: as §1
# [23] = molecular target: Fuc(a1-2)[Gal(a1-3)]Gal(b1-4)GlcNAc(b1-3)GalNAc
# Procedure, shortened: as §1
# [24] = molecular target: Fuc(a1-2)[Gal(a1-3)]Gal(b1-4)GlcNAc(b1-3)[Fuc(a1-2)[Gal(a1-3)]Gal(b1-4)GlcNAc(b1-6)]GalNAc
# Procedure, shortened: as §1
# [25] = molecular target: Fuc(a1-2)[Gal(a1-3)]Gal(b1-4)GlcNAc(b1-6)GalNAc
# Procedure, shortened: as §1
# [26] = molecular target: Fuc(a1-2)[Gal(a1-3)]Gal(b1-4)[Fuc(a1-3)]Glc
# Procedure, shortened: as §1
# [27] = molecular target: Fuc(a1-2)[Gal(a1-3)]Gal(b1-4)[Fuc(a1-3)]GlcNAc
# Procedure, shortened: as §1
# [28] = molecular target: Fuc(a1-2)[Gal(a1-3)]Gal(b1-4)[Fuc(a1-3)]GlcNAc(b1-3)GalNAc
# Procedure, shortened: as §1
# [29] = molecular target: Fuc(a1-2)[Gal(a1-4)]Gal(b1-4)GlcNAc
# Procedure, shortened: as §1
# [30] = molecular target: Fuc(a1-2)[GalNAc(a1-3)]Gal
# Procedure, shortened: as §1
# [31] = molecular target: Fuc(a1-2)[GalNAc(a1-3)]Gal(b1-3)GalNAc(a1-3)[Fuc(a1-2)]Gal(b1-4)GlcNAc
# Procedure, shortened: as §1
# [32] = molecular target: Fuc(a1-2)[GalNAc(a1-3)]Gal(b1-3)GalNAc(b1-3)Gal(a1-4)Gal(b1-4)Glc
# Procedure, shortened: as §1
# [33] = molecular target: Fuc(a1-2)[GalNAc(a1-3)]Gal(b1-3)GlcNAc
# Procedure, shortened: as §1
# [34] = molecular target: Fuc(a1-2)[GalNAc(a1-3)]Gal(b1-3)GlcNAc(b1-2)Man(a1-3)[Fuc(a1-2)[GalNAc(a1-3)]Gal(b1-3)GlcNAc(b1-2)Man(a1-6)]Man(b1-4)GlcNAc(b1-4)GlcNAc
# Procedure, shortened: as §1
# [35] = molecular target: Fuc(a1-2)[GalNAc(a1-3)]Gal(b1-3)GlcNAc(b1-2)Man(a1-3)[Fuc(a1-2)[GalNAc(a1-3)]Gal(b1-3)GlcNAc(b1-2)Man(a1-6)]Man(b1-4)GlcNAc(b1-4)[Fuc(a1-6)]GlcNAc
# Procedure, shortened: as §1
# [36] = molecular target: Fuc(a1-2)[GalNAc(a1-3)]Gal(b1-3)GlcNAc(b1-3)GalNAc
# Procedure, shortened: as §1
binder,measurement,setting,value
B1,glycan array binding signal (z-score),[1],-0.299
same,glycan array binding signal (z-score),[2],-0.326
same,glycan array binding signal (z-score),[3],-0.617
same,glycan array binding signal (z-score),[4],-0.245
same,glycan array binding signal (z-score),[5],0.243
same,glycan array binding signal (z-score),[6],-0.493
same,glycan array binding signal (z-score),[7],-0.428
same,glycan array binding signal (z-score),[8],-0.395
same,glycan array binding signal (z-score),[9],0.18
same,glycan array binding signal (z-score),Fuc(a1-2)Gal6S(b1-4)Glc,-0.465
same,glycan array binding signal (z-score),[10],-0.104
same,glycan array binding signal (z-score),Fuc(a1-2)[Gal(a1-3)]Gal,-0.077
same,glycan array binding signal (z-score),[11],-0.429
same,glycan array binding signal (z-score),[12],-0.562
same,glycan array binding signal (z-score),[13],0.846
same,glycan array binding signal (z-score),[14],-0.472
same,glycan array binding signal (z-score),[15],-0.237
same,glycan array binding signal (z-score),[16],-0.298
same,glycan array binding signal (z-score),[17],1.59
same,glycan array binding signal (z-score),[18],-0.115
same,glycan array binding signal (z-score),[19],-0.206
same,glycan array binding signal (z-score),[20],-0.222
same,glycan array binding signal (z-score),[21],-0.48
same,glycan array binding signal (z-score),[22],-0.435
same,glycan array binding signal (z-score),[23],-0.311
same,glycan array binding signal (z-score),[24],-0.381
same,glycan array binding signal (z-score),[25],-0.101
same,glycan array binding signal (z-score),[26],-0.409
same,glycan array binding signal (z-score),[27],-0.101
same,glycan array binding signal (z-score),[28],-0.523
same,glycan array binding signal (z-score),[29],-0.394
same,glycan array binding signal (z-score),[30],0.434
same,glycan array binding signal (z-score),[31],-0.177
same,glycan array binding signal (z-score),[32],-0.377
same,glycan array binding signal (z-score),[33],-0.306
same,glycan array binding signal (z-score),[34],-0.171
same,glycan array binding signal (z-score),[35],-0.305
same,glycan array binding signal (z-score),[36],-0.218
